Patent publication US20230287084A1 (35PHARMA, published 2023)

B1: P119 (hActRIIB - G27D, 3aa linker, IgG1 FcEM) (Fc fusion)
chain: ETRECIYYNANWELERTNQSGLERCEDEQDKRLHCYASWRNSSGTIELVKKGCWLDDFNCYDRQECVATEENPQVYFCCCEGNFCNERFTHLPEAGGPEVTYEPPPTG[omitted - human IgG1 Fc and a few adjoining residues]
B2: P124 (hActRIIB - K31Y, 3aa linker, IgG1 FcEM) (Fc fusion)
chain: ETRECIYYNANWELERTNQSGLERCEGEQDYRLHCYASWRNSSGTIELVKKGCWLDDFNCYDRQECVATEENPQVYFCCCEGNFCNERFTHLPEAGGPEVTYEPPPTG[omitted - human IgG1 Fc and a few adjoining residues]
B3: P1153 (hActRIIB - F58K, 6aa linker, IgG1 FcDL) (Fc fusion)
chain: ETRECIYYNANWELERTNQSGLERCEGEQDKRLHCYASWRNSSGTIELVKKGCWLDDKNCYDRQECVATEENPQVYFCCCEGNFCNERFTHLPEAGGPEVTYEPPPTGGGG[omitted - human IgG1 Fc and a few adjoining residues]
B4: P1154 (hActRIIB - F58K, 10aa linker, IgG1 FcDL) (Fc fusion)
chain: ETRECIYYNANWELERTNQSGLERCEGEQDKRLHCYASWRNSSGTIELVKKGCWLDDKNCYDRQECVATEENPQVYFCCCEGNFCNERFTHLPEAGGPEVTYEPPPTGGGGSGGG[omitted - human IgG1 Fc and a few adjoining residues]
B5: P1155 (hActRIIB - F58K, 19aa linker, IgG1 FcDL) (Fc fusion)
chain: ETRECIYYNANWELERTNQSGLERCEGEQDKRLHCYASWRNSSGTIELVKKGCWLDDKNCYDRQECVATEENPQVYFCCCEGNFCNERFTHLPEAGGPEVTYEPPPTGGGGSGGGGSGGGGSGG[omitted - human IgG1 Fc and a few adjoining residues]
B6: P1156 (hActRIIB - F58K, 39aa linker, IgG1 FcDL) (Fc fusion)
chain: ETRECIYYNANWELERTNQSGLERCEGEQDKRLHCYASWRNSSGTIELVKKGCWLDDKNCYDRQECVATEENPQVYFCCCEGNFCNERFTHLPEAGGPEVTYEPPPTGGGGSGGGGSGGGGSGGGGSGGGGSGGGGSGGGGSGG[omitted - human IgG1 Fc and a few adjoining residues]
B7: P1168 (hActRIIB - F58E + C-term APT, 14aa linker, IgG1 FcDL) (Fc fusion)
chain: ETRECIYYNANWELERTNQSGLERCEGEQDKRLHCYASWRNSSGTIELVKKGCWLDDENCYDRQECVATEENPQVYFCCCEGNFCNERFTHLPEAGGPEVTYEPPPTAPTGGGGSGGGGSGG[omitted - human IgG1 Fc and a few adjoining residues]
B8: P1213 (hActRIIB - F58N, 14aa linker, IgG1 FcDL) (Fc fusion)
chain: ETRECIYYNANWELERTNQSGLERCEGEQDKRLHCYASWRNSSGTIELVKKGCWLDDNNCYDRQECVATEENPQVYFCCCEGNFCNERFTHLPEAGGPEVTYEPPPTGGGGSGGGGSGG[omitted - human IgG1 Fc and a few adjoining residues]
B9: P1215 (hActRIIB - F58R, 14aa linker, IgG1 FcDL) (Fc fusion)
chain: ETRECIYYNANWELERTNQSGLERCEGEQDKRLHCYASWRNSSGTIELVKKGCWLDDRNCYDRQECVATEENPQVYFCCCEGNFCNERFTHLPEAGGPEVTYEPPPTGGGGSGGGGSGG[omitted - human IgG1 Fc and a few adjoining residues]
B10: P1217 (hActRIIB - F58H, 14aa linker, IgG1 FcDL) (Fc fusion)
chain: ETRECIYYNANWELERTNQSGLERCEGEQDKRLHCYASWRNSSGTIELVKKGCWLDDHNCYDRQECVATEENPQVYFCCCEGNFCNERFTHLPEAGGPEVTYEPPPTGGGGSGGGGSGG[omitted - human IgG1 Fc and a few adjoining residues]

target: T1, activin A (UniProt P08476 311-426); experiment: cell-based or functional assay
T1 sequence (looked up): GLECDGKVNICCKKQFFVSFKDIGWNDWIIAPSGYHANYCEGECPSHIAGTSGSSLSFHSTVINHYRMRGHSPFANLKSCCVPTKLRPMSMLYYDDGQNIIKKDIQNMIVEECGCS

Binder	Avg IC50, activin A neutralization (HEK293 TGFβ-reporter) [nM]
B1	0.98
B2	5.3
B3	0.86
B4	0.53
B5	0.36
B6	0.32
B7	0.35
B8	1.5
B9	0.58
B10	0.59

target: T2, activin B (UniProt P09529 293-407); experiment: cell-based or functional assay
T2 sequence (looked up): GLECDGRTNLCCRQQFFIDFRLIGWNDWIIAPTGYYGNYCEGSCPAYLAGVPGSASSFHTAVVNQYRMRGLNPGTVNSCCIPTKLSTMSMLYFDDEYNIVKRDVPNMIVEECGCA

Binder	Avg IC50, activin B neutralization (HEK293 TGFβ-reporter) [nM]
B1	1.8
B2	22

target: T3, GDF-8 (UniProt O14793 267-375); experiment: cell-based or functional assay
T3 sequence (looked up): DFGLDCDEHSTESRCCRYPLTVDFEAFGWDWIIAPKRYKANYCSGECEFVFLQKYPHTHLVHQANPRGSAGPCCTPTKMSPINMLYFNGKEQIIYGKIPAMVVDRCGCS

Binder	Avg IC50, GDF-8 neutralization (HEK293 TGFβ-reporter) [nM]
B1	0.64
B2	7.1
B3	1.5
B4	1
B5	1.1
B7	0.39
B8	1.1
B9	0.99
B10	0.56

target: T4, GDF-11 (UniProt O95390 299-407); experiment: cell-based or functional assay
T4 sequence (looked up): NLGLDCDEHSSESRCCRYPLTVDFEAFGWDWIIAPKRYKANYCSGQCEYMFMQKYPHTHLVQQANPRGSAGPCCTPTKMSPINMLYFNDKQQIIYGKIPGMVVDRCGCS

Binder	Avg IC50, GDF-11 neutralization (HEK293 TGFβ-reporter) [nM]
B1	0.97
B2	5.3

target: T5, BMP-9 (UniProt Q9UK05 320-429); experiment: cell-based or functional assay
T5 sequence (looked up): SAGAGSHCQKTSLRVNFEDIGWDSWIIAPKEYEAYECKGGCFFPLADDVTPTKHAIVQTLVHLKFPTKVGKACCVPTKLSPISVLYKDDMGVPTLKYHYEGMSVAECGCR

Binder	Average IC50, BMP-9 neutralization (HepG2 BMP-reporter) [nM]
B1	1.3
B2	15.9
B3	170
B4	210
B5	134
B6	127
B7	> 100
B8	192
B9	91
B10	23

target: T6, BMP-10 (UniProt O95393 317-424); experiment: cell-based or functional assay
T6 sequence (looked up): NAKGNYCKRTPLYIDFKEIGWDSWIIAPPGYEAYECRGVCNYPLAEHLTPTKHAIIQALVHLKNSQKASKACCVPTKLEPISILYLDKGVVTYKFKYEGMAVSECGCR

Binder	Average IC50, BMP-10 neutralization (HepG2 BMP-reporter) [nM]
B1	2.1
B2	21
